Assay results from article PMC4336329 (PLoS ONE, 2015).
The whole screen tested about 310,000 compounds, of which about 14,000 (4.5%) showed an effect of 50% or more. Effects have a minus sign here. This is one part of the list.

What follows are molecules tested against human ether-à-go-go-related gene (hERG) potassium channel (human, UniProt Q12809) (assay: primary screen, population patch clamp on CHO cells stably expressing hERG).
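Note: peak tail current of the secondary pulse compared with the same well before compound.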

Sequence of human ether-à-go-go-related gene (hERG) potassium channel (Q12809 whole entry, looked up): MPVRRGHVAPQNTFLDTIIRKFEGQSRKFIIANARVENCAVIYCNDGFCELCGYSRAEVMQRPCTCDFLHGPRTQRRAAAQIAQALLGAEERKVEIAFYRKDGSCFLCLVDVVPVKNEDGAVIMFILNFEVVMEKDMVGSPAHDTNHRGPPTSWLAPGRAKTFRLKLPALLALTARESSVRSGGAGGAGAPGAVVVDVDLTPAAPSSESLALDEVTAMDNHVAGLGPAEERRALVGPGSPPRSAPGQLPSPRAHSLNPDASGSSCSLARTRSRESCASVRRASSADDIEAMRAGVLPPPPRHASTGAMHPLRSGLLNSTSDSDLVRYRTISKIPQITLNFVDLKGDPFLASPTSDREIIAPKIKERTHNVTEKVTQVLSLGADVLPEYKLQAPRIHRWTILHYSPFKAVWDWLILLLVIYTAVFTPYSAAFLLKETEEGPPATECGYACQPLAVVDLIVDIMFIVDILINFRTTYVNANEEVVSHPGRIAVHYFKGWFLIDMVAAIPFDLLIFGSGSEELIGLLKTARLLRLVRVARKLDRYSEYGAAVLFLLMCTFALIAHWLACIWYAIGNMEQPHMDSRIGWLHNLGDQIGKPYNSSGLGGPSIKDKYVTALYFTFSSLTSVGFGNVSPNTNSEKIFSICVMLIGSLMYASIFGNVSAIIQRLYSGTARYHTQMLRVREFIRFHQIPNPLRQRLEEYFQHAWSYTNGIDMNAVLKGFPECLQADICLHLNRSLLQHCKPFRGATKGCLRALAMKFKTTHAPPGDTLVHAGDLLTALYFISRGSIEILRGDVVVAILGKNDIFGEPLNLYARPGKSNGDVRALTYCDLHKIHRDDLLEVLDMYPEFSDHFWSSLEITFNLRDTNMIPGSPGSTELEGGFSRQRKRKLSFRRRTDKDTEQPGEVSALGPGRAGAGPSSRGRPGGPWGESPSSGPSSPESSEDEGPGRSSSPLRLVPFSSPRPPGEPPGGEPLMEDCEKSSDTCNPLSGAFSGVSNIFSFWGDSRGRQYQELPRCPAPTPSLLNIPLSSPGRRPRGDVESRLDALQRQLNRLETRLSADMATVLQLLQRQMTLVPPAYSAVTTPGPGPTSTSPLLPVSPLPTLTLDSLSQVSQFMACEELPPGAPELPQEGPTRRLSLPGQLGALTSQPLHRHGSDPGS

In order of falling “hERG current change (%, negative = inhibition) at 10uM” value:
1. CC(C)NC(=O)c1onc(CSc2ccc(C(C)C)cc2)c1C(=O)O  23%
2. Cc1cccc(C)c1OCC(=O)NNC(=O)CCNC(=O)c1ccco1  21.3%
3. CCOC(=O)N1CCN(C(=O)C(=O)Nc2sc3c(c2C(=O)O)CC(C)(C)OC3)CC1  21%
4. O=C(CN1CCN(CC(=O)Nc2ccccc2Cc2ccccc2)CC1)Nc1ccccc1Cl  20%
5. O=C(O)c1cc(S(=O)(=O)N2CC3CC3C2C(=O)O)c(Cl)cc1Cl (stereo not shown)  19.3%
6. C/C(Cl)=C/Cc1c(C)[nH]c2c(ccc3ccccc32)c1=O  19.2%
7. COc1cc(-c2nc3sc(C)c(C)c3c(=O)o2)cc(OC)c1OC  19%
8. Cc1cc(C)n(/C(=C\N(C)C)C(=O)c2cccc([N+](=O)[O-])c2)n1  14.4%
9. COc1cccc(CNS(=O)(=O)c2ccc(S(=O)(=O)NC3CC3)cc2)c1  14.2%
10. S=C(NCC1CCCCC1)Nc1ccc(Oc2ccccc2)cc1  12.8%
11. Cc1nc2ccc(NC(=O)N3CCCCC3)cc2nc1C  12.8%
12. COc1ccc(C(=O)NC(C(=O)NCC2CCCO2)C(C)C)cc1 (stereo not shown)  12.5%
13. Nc1ccc(C#Cc2ccc3oc4ccccc4c(=O)c3c2)cc1  12.2%
14. O=C(CC1SC(N2CCCCC2)=NC1=O)Nc1cccc(C(=O)Nc2ncccc2O)c1 (stereo not shown)  11.7%
15. COc1ccc(C)cc1S(=O)(=O)N(C)CC(=O)NCc1ccncc1  10.6%
16. CCOc1cc(C(c2c(C)[nH][nH]c2=O)c2c(C)[nH][nH]c2=O)cc(Br)c1OC  10.3%
17. Oc1cc(Br)ccc1C=Nc1ccc(N2CCCCC2)cc1  8.42%
18. S=c1[nH]nc(-c2cccnc2)n1/N=C/C=C/c1ccco1  6.56%
19. Cc1nn(C)cc1C(C(=O)NC1CCCCC1)N(Cc1ccc(F)cc1)C(=O)c1cnccn1 (stereo not shown)  6.46%
20. CC(C)=CCOc1c2ccoc2cc2oc(=O)ccc12  6.33%
21. O=C(N[C@@H](Cc1ccccc1)C(=O)OCc1ccccc1)c1nc[nH]c1C(=O)NC1CC[NH2+]CC1.[Cl-]  6.23%
22. COc1cc(C2C3=C(CC(C)(C)CC3=O)Nc3ccccc3N2C(C)=O)cc(OC)c1OC (stereo not shown)  3.82%
23. O=C(CCC(=O)c1cccs1)Nc1ccccc1F  3.01%
24. COc1ccccc1-c1c(C)nn2c(N3CCC(C)CC3)cc(C)nc12  2.78%
25. Cc1cc(Cl)ccc1NNC(N)=S  2.34%
26. C=CCN1C(=O)C(CC(=O)O)SC1=Nc1c(C)n(C)n(-c2ccccc2)c1=O (stereo not shown)  1.73%
27. O=C1N/C(=C/c2ccc(Br)cc2)C(O)=C1C=NCc1ccccc1  0.962%
28. O=C(OCC(=O)N1CCN(S(=O)(=O)c2ccc(Cl)cc2)CC1)C1CC1  0.609%
29. CN(Cc1ccccc1)/C(=N/O)c1cccc(Cl)c1  -0.00072%
30. O=C1c2ccccc2C(O)N1Cc1ccccc1Cl (stereo not shown)  -0.865%
31. Cn1nc(C(=O)Nc2ccccc2N2CCCC2)c2ccccc2c1=O  -0.947%
32. O=C1CSC(c2cn(-c3ccccc3)nc2-c2cccs2)N1Cc1ccccc1 (stereo not shown)  -1.38%
33. COc1ccc2[nH]c3c(=O)n(CCN4CCOCC4)cnc3c2c1  -2.38%
34. c1ccc(C(c2ccccc2)N2CCN(c3ccc4ccccc4n3)CC2)cc1  -3.18%
35. Oc1ccccc1/C=N/N1CCN(c2ccccn2)CC1  -4.41%
36. COc1ccc(S(=O)(=O)N2CCC(C(=O)NCc3ccncc3)CC2)cc1C  -5.06%
37. CCOc1cc(/C=C2\COc3ccccc3C2=O)ccc1OCC(=O)N(C)C  -10.3%
38. CCN(C(=O)COC(=O)c1cn(C)c2ccccc12)c1ccc(F)cc1  -11.7%
39. O=C(Cn1sc2ccccc2c1=O)N1CCN(C(=O)c2ccco2)CC1  -12.3%
40. CCN(c1ccccc1)S(=O)(=O)c1ccc(Cl)c(NC(=O)CSc2nncn2C)c1  -15.7%
41. S=C=Nc1ccccn1  -16.7%
42. COc1ccccc1-c1nnc(NC(=O)c2ccc(S(=O)(=O)N3CCCC3)cc2)o1  -17.3%
43. COC(=O)c1[nH]c2cc(C)ccc2c1NC(=O)CN1CCc2cc(OC)c(OC)cc2C1  -20.6%
44. COc1ccccc1N(CC(=O)NC1CCCCC1)S(=O)(=O)c1cccs1  -21.7%
45. COc1ccc(C(=O)N2CCN(c3ccc(C)cc3)CC2)cc1OC  -21.8%
46. COc1ccc(C2NC(=O)NC3=C2CCc2ccccc23)cc1 (stereo not shown)  -22.8%
47. CCOc1ccc(NS(=O)(=O)c2ccc(C(=O)NCC(c3ccco3)N(C)C)cc2)cc1 (stereo not shown)  -23.2%
48. COc1ccc(CCNC(=O)c2cccc3c2C(=O)N(C2CCCCC2)C3)cc1OC  -24.1%
49. Cc1nc(CN2CCN(C(=O)c3ccc(Br)cc3)CC2)cs1  -32.8%
50. COc1ccc(CN2CCN(CCc3ccccc3)C(CCO)C2)cc1Cn1cncn1 (stereo not shown)  -35.8%
51. CCOC(=O)c1cnc2c(OC)cccc2c1N1CCN(c2ccc(OC)cc2)CC1  -47.1%
52. O=C(COc1ccc(Br)cc1)N1CCN(S(=O)(=O)/C=C/c2ccccc2)CC1  -49.6%
53. C=CCc1cc(Cl)ccc1OCCOCCN(C)C.O=C(O)C(=O)O  -51.5%
54. Cc1sc2ncnc(N3CCN(C(=O)c4ccco4)CC3)c2c1C  -61.8%
55. CCCCOc1cc(C(=O)NCCN(CC)CC)c2ccccc2n1  -65.9%
